# This is one part of the list. Single values of this set are uncertain. Values with irradiation are relative to irradiated vehicle.
# System: A549-Dual
# Test: ISRE reporter (Lucia luciferase) activity, viability-corrected, relative to vehicle (fold change vs vehicle); higher = more activation of STING-IRF / NF-kB immune response reporter
# Settings: 1 µM; irradiation: none
row,SMILES,ISRE reporter
1,CC1=C(CC(=O)O)c2cc(F)ccc2/C1=C\c1ccc(S(C)=O)cc1 (stereo not given) [Sulindac],0.89
2,C1N2CN3CN1CN(C2)C3 [Methenamine],0.875
3,COc1ccc2cc(C(C)C(=O)[O-])ccc2c1.[Na+] (stereo not given) [Naproxen Sodium],1.14
4,Cc1ccc(Cl)c(Nc2ccccc2C(=O)[O][Na])c1Cl [Meclofenamate Sodium],1.02
5,O=C(OCCOCCO)c1ccccc1Nc1cccc(C(F)(F)F)c1 [Etofenamate],0.65
6,O=C([O-])c1cc(N=Nc2ccc(O)c(C(=O)[O-])c2)ccc1O.[Na+].[Na+] [Olsalazine Sodium],0.73
7,CC(=O)Nc1ccc(OC(=O)c2ccccc2OC(C)=O)cc1 [Benorylate],0.692
8,CO/N=C(\C(=O)NC1C(=O)N2C(C(=O)OCOC(=O)C(C)(C)C)=C(C)CSC12)c1csc(N)n1.Cl (stereo not given) [Cefetamet pivoxil hydrochloride],0.634
9,CCC(C(=O)O)c1ccc(N2Cc3ccccc3C2=O)cc1 (stereo not given) [Indobufen],0.768
10,CS(=O)(=O)O.Cc1ccc(NC(=O)c2ccc(CN3CCN(C)CC3)cc2)cc1Nc1nccc(-c2cccnc2)n1 [Imatinib Mesylate (STI571)],1.1
11,CC(C(=O)O)c1ccc(C(=O)c2ccccc2)s1 (stereo not given) [Tiaprofenic acid],1.2
12,CCc1nc(N)nc(N)c1-c1ccc(Cl)cc1 [Pyrimethamine],1.13
13,COc1cc(C2c3cc4c(cc3C(OC3OC5COC(C)OC5C(O)C3O)C3COC(=O)C23)OCO4)cc(OC)c1O (stereo not given) [Etoposide],2.47
14,CN(C)CCC(c1ccc(Br)cc1)c1ccccn1.O=C(O)/C=C\C(=O)O (stereo not given) [Brompheniramine hydrogen maleate],1.16
15,CC12CCC3c4ccc(O)cc4CC(CCCCCCCCCS(=O)CCCC(F)(F)C(F)(F)F)C3C1CCC2O (stereo not given) [Fulvestrant],1.04
16,O=C([O-])CC(O)(CC(=O)[O-])C(=O)[O-].O=C([O-])CC(O)(CC(=O)[O-])C(=O)[O-].[BiH6+3].[K+].[K+].[K+] [Gastrodenol],1.27
17,CCCCC1(COC(=O)CCC(=O)O)C(=O)N(c2ccccc2)N(c2ccccc2)C1=O [Suxibuzone],1.02
18,O=C(O)Cc1ccccc1Nc1c(Cl)cccc1Cl.OCCN1CCCC1 [Diclofenac Epolamine],0.592
19,Cl.N=C1CCCN1Cc1[nH]c(=O)[nH]c(=O)c1Cl.O=c1[nH]c(=O)n(C2CC(O)C(CO)O2)cc1C(F)(F)F.O=c1[nH]c(=O)n(C2CC(O)C(CO)O2)cc1C(F)(F)F (stereo not given),3.11
20,NC(CO)(CO)CO [Trometamol],0.807

row,SMILES,ISRE reporter
1,COc1ccc2c(c1)c(CC(=O)O)c(C)n2C(=O)c1ccc(Cl)cc1 [Indomethacin],1.07
2,Cn1cnc([N+](=O)[O-])c1Sc1ncnc2nc[nH]c12 [Azathioprine],0.888
3,NCCNc1ccc(NCCN)c2c1C(=O)c1ccncc1C2=O.O=C(O)/C=C\C(=O)O.O=C(O)/C=C\C(=O)O [Pixantrone Maleate],3.35
4,CC(=O)Oc1cccc2c1C(=O)c1c(OC(C)=O)cc(C(=O)O)cc1C2=O [Diacerein],0.762
5,CNCC(O)c1ccc(O)c(O)c1.O=C(O)C(O)C(O)C(=O)O (stereo not given) [Epinephrine bitartrate],1.23
6,CC1(C(=O)O)CCC2(C)CCC3(C)C(=CC(=O)C4C5(C)CCC(OC6OC(C(=O)O)C(O)C(O)C6OC6OC(C(=O)O)C(O)C(O)C6O)C(C)(C)C5CCC43C)C2C1.N.N (stereo not given) [Diammonium Glycyrrhizinate],0.99
7,CCCCCCCCCCCCCCCCCCOP(=O)([O-])OC1CC[N+](C)(C)CC1 [Perifosine (KRX-0401)],0.985
8,COc1c2occc2cc2ccc(=O)oc12 [Methoxsalen],0.801
9,O=C(O)CCCN1CCC(OC(c2ccc(Cl)cc2)c2ccccn2)CC1 (stereo not given) [Bepotastine],0.964
10,CN(C)CCCOc1nn(Cc2ccccc2)c2ccccc12.Cl [Benzydamine HCl],0.916
11,CC(C(=O)O)c1ccc2c(c1)[nH]c1ccc(Cl)cc12 (stereo not given) [Carprofen],0.741
12,COc1cc2nccc(Oc3ccc(NC(=O)Nc4cc(C)on4)c(Cl)c3)c2cc1OC [Tivozanib (AV-951)],0.827
13,Oc1ccc(/C=C/c2cc(O)cc(O)c2)cc1 [Resveratrol],0.938
14,Nc1cccc2c1C(=O)N(C1CCC(=O)NC1=O)C2=O (stereo not given) [Pomalidomide],0.922
15,COc1cc(C2c3cc4c(cc3C(OC3OC5COC(c6cccs6)OC5C(O)C3O)C3COC(=O)C23)OCO4)cc(OC)c1O (stereo not given) [Teniposide],3.11
16,S=c1nc[nH]c2nc[nH]c12 [Mercaptopurine (6-MP)],0.774
17,CC(C(=O)O)c1ccc2c(c1)CC(=O)c1ccccc1S2 (stereo not given) [Zaltoprofen],0.93
18,Cc1nc(Nc2ncc(C(=O)Nc3c(C)cccc3Cl)s2)cc(N2CCN(CCO)CC2)n1.Cl [Dasatinib hydrochloride],0.419
19,"O=c1[nH]cc(F)c(=O)[nH]1 [Fluorouracil (5-Fluoracil, 5-FU)]",0.976
20,COc1cc(/C=C/C(=O)/C=C(O)/C=C/c2ccc(O)c(OC)c2)ccc1O [Curcumin],0.908

# — the supplement of paper PMC9174493
